Source: publication PMC4336329 (PLoS ONE, 2015)
The campaign covered roughly 310,000 compounds. About 14,000 (4.5%) showed an effect of 50% or more. Effects have a minus sign here. This is one part of the list.

biological target: human ether-à-go-go-related gene (hERG) potassium channel (human, UniProt Q12809); test: primary screen, population patch clamp on CHO cells stably expressing hERG
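Note: peak tail current of the secondary pulse compared with the same well before compound.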

Chain of human ether-à-go-go-related gene (hERG) potassium channel (Q12809 whole entry, looked up): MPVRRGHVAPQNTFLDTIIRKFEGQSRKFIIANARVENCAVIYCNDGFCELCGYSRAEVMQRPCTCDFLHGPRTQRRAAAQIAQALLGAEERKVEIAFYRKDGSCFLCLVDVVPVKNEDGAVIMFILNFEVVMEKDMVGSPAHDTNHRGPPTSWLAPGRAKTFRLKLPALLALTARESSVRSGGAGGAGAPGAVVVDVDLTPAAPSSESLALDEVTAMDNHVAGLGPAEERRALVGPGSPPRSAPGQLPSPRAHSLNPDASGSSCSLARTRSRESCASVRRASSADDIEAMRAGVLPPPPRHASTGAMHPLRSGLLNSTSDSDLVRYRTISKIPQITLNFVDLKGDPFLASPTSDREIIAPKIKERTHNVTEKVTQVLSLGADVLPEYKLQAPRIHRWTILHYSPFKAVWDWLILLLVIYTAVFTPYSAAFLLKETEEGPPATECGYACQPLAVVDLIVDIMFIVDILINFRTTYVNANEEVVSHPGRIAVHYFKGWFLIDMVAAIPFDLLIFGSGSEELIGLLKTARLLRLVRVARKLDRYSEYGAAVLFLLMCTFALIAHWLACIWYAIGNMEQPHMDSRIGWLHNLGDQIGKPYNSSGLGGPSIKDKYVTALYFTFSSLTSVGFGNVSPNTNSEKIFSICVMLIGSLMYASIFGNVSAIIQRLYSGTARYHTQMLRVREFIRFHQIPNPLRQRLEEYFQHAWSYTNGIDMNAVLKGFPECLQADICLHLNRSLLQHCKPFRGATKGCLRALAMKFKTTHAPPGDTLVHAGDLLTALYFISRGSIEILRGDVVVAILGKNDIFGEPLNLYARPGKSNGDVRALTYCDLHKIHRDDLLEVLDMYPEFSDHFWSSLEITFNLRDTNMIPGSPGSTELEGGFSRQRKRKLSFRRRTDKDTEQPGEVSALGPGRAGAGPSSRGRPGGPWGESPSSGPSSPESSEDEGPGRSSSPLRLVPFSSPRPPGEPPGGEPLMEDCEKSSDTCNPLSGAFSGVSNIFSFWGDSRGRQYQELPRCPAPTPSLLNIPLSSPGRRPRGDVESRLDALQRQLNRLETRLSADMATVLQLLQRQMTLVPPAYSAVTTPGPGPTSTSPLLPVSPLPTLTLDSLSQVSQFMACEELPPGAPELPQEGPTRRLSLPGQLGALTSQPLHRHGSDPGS

| Compound | hERG current change (%, negative = inhibition) at 10uM [%] |
| --- | --- |
| CCOc1ccc(N(CC(=O)NC2CCCCC2C)S(=O)(=O)c2c(C)noc2C)cc1 (stereo not drawn) | 22.8 |
| Cc1ccc(NC(=O)CN2CCN(C(=O)C3CCCO3)CC2)c(C)c1 (stereo not drawn) | -35.5 |
| CCN(CCn1cccn1)C(=O)c1ccc2nc(Cc3ccc(OC)cc3)oc2c1 | -1.32 |
| O=C(CN(Cc1ccco1)C(=O)c1ccc(N2CCCC2=O)cc1)Nc1ccccc1C(F)(F)F | -46.3 |
| Cc1cc(C(=O)CCC(=O)N(C)CC(=O)Nc2ccccc2Br)c(C)s1 | -5.42 |
| C=CCc1ccccc1OCC(O)CN1CCN(C(=O)OCC)CC1.Cl (stereo not drawn) | -11.3 |
| CNC(=O)c1cc2cc(Cc3ccccc3Cl)ccc2oc1=O | 1.75 |
| O=S(=O)(Cc1ccc(Cl)cc1)N1CCCC1 | -7.31 |
| Cc1ccc2cccc(OCc3ccc(Br)cc3)c2n1 | 8.51 |
| CCCCn1c(O)c(N=NC(=O)c2ccncc2)c2cc(Br)ccc21 | -68.1 |
| O=C(CS(=O)CC(=O)N(c1ccccc1)C(C(=O)NC1CCCCC1)c1ccco1)Nc1ccc(F)cc1 (stereo not drawn) | -1.48 |
| N#CCCN(CCC#N)C(=O)c1ccc2c(c1)OCO2 | 5.31 |
| Cc1cc(C)nc(SCC(=O)Nc2nccs2)n1 | 14.8 |
| CCOC(=O)CSC1=C(C#N)C(=O)NC2(CCCCC2)S1 | 19 |
| O=C(C1=C[C@H](c2ccc(C(F)(F)F)cc2)C[C@H](OCCCCO)O1)N1CCN(Cc2ccc3c(c2)OCO3)CC1 | -44.1 |
| Cc1cc(/C=C2\SC(=S)N(C)C2=O)c(C)n1-c1ccc(O)cc1 | 25.3 |
| Cc1csc2c(C#N)c(=O)c3c(n12)CCC3 | 8.6 |
| COc1ccccc1N1C(=O)CC1(C#N)c1ccc(OCc2ccccc2)cc1 (stereo not drawn) | 7.52 |
| COc1ccc(S(=O)(=O)NCCSC(C)(C)C)c(Cl)c1Cl | -19.3 |
| O=C(NCc1cccnc1)C1CCCN(S(=O)(=O)c2ccc(Br)cc2)C1 (stereo not drawn) | -41.6 |
| COc1ccccc1C(=O)N/C(=C/c1ccc(Br)cc1)C(=O)NCCCn1ccnc1 | -87 |
| O=C(O)C(=O)Cc1c[nH]c2ccccc12 | 19.2 |

| Compound | hERG current change (%, negative = inhibition) at 10uM [%] |
| --- | --- |
| O=C(NCc1ccccc1Cl)C1CCN(S(=O)(=O)N2CCCCC2)CC1 | 1.33 |
| CCn1nc(C)cc1C(=O)N1CCCC(CCC(=O)NCc2ccccc2F)C1 (stereo not drawn) | 26.4 |
| CN(c1ccccc1)S(=O)(=O)c1cc(C(=O)OCC(=O)N2CCN(C(=O)c3ccco3)CC2)ccc1Cl | -68.3 |
| CCOC(=O)N1CCN(S(=O)(=O)c2cc(Cl)ccc2Cl)CC1 | -2.29 |
| Cc1cccc(C(=O)N(c2ccccn2)C(C)c2ccco2)c1 (stereo not drawn) | 3.03 |
| CCOCCOC(=O)c1ccc(NC(=O)c2cc(OC)c(OC)c(OC)c2Br)cc1 | -6.1 |
| Cn1c(COc2ccc(Cl)cc2)nnc1SCC(=O)Nc1ccc2c(c1)CCC2 | 15 |
| COc1ccc(S(=O)(=O)NCC2CCCN(Cc3ccc(O)cc3)C2)cc1 (stereo not drawn) | -59.2 |
| CC(/C=N/NC(=O)c1nnn(-c2nonc2N)c1C(C)C)=C\c1ccccc1 | 14.8 |
| CCCN1CCC(=O)N(CCSc2ccc(NC(C)=O)cc2)CC1 | 6.8 |
| CC(C)C[C@H]1C(=O)N2CCC[C@H]2[C@]2(O)O[C@](NC(=O)[C@@H]3C=C4c5cccc6[nH]cc(c56)C[C@H]4N(C)C3)(C(C)C)C(=O)N12 | -12.6 |
| COCCOC(=O)c1nccnc1C(=O)Nc1ccc(S(=O)(=O)N2CCOCC2)cc1 | -0.241 |
| O=C(Nc1ccc(Cl)cn1)C1CC1 | -10.7 |
| CCN1C(=O)N[C@@H](CCc2ccccc2)[C@H](C(C)=O)[C@H]1C | -4.7 |
| CCc1cc2ccc(OC)cc2nc1SCC(=O)Nc1cc(C)on1 | -3.99 |
| O=C(COc1cccc2cccnc12)N/N=C1\SCC(=O)N1CCc1ccccc1 | -41.5 |
| Cc1ccc(C)c(OCc2cc(C(=O)N3CCN(c4ccccc4)CC3)no2)c1 | -31.4 |
| Cn1c(CSCc2ccc(Cl)cc2)nnc1SCC(=O)Nc1nccs1 | -0.617 |
| CC(C)c1ccc(NC2CCCN(C(=O)c3cccc4nccnc34)C2)cc1 (stereo not drawn) | 3.92 |
| CCOC(=O)c1c(NC(=O)c2ccccc2)sc2c1CCc1ccccc1-2 | 17.2 |
| Cc1ccc(F)cc1NC(=O)COC(=O)c1ccc2ncsc2c1 | -5.08 |
| Brc1ccc(C2=Nc3cccc4cccc(c34)N2)o1 | 16.7 |

| Compound | hERG current change (%, negative = inhibition) at 10uM [%] |
| --- | --- |
| COc1ccc(S(=O)(=O)N2CCCCCC2)cc1C(=O)OCC(=O)NC(N)=O | -9.58 |
| Cc1cc(C(F)(F)F)nc(SCC(=O)NC2CCCCC2)n1 | -10 |
| COC(=O)CCC(=O)NS(=O)(=O)c1ccc(N=NN2CCOCC2)cc1 | 6.75 |
| COc1ccc(S(=O)(=O)NCC(c2ccc(F)cc2)N2CCN(C)CC2)cc1 (stereo not drawn) | -36.4 |
| CSC1=N/C(=C\c2ccc(C)o2)C(=O)S1 | -1.31 |
| O=C(C1CCN(S(=O)(=O)c2ccc(Cl)cc2)CC1)N1CCCCCCC1 | -16.1 |
| O=C1CC(NC2CCN(C(=O)c3cccc(F)c3)CC2)C(=O)N1 (stereo not drawn) | 22.3 |
| O=C(c1ccc(NC(=O)C2(c3ccccc3)CCOCC2)cc1)N1CCOCC1 | 9.8 |
| Cc1ccc(NC(=O)N2CCCC2C(=O)Nc2c(C)cc(C)cc2C)cc1 (stereo not drawn) | -1.7 |
| Cc1cc(-n2c(C)cc(C(=O)CCl)c2C)no1 | -13.3 |
| Cc1nn(C(C)C(=O)N/N=C/c2ccc(N(C)C)cc2)c(C)c1[N+](=O)[O-] (stereo not drawn) | -13.4 |
| CCOC(=O)c1sc(NC(=O)Cc2c(F)cccc2Cl)nc1C | 5.72 |
| Cc1ccc(C(=O)N/N=C/C2=Cc3ccccc3OC2C)cc1 (stereo not drawn) | -10.4 |
| COc1ccc(CN2C(=O)c3cccnc3C2=O)cc1S(=O)(=O)N1CCCCC1C (stereo not drawn) | -2.41 |
| C=CCn1c(N)c(C(=O)N2CCOCC2)sc1=S | -0.64 |
| Cc1ccc(C(=O)CSc2nnc(-c3cccnc3)n2N)cc1 | -15.2 |
| COc1ccc(CCn2c(NCCCN3CCOCC3)nc3c2c(=O)[nH]c(=O)n3C)cc1 | -4.38 |
| O=C(NC(Cc1ccccc1)C(=O)O)OCc1ccccc1 (stereo not drawn) | 2.83 |
| Cc1cccc(C(=O)NCCN(C)C)c1.Cl | 8.43 |
| COc1ccc(-n2c(O)c(Cc3ccccc3)c(=O)n3nc(-c4ccccc4)c(=O)cc23)cc1 | 5.18 |
| C=CCn1c(CNS(=O)(=O)c2ccc(Br)cc2)nnc1SC | 0.256 |
| Cc1nc2cc(NC(=O)Nc3cccc([N+](=O)[O-])c3)ccc2n1C | 6.59 |

| Compound | hERG current change (%, negative = inhibition) at 10uM [%] |
| --- | --- |
| N#CC1=C(N)OC2=C(CC/C2=C\c2ccccc2)C1c1ccccc1 (stereo not drawn) | 13.9 |
| Cc1ccnc(NC(=O)CCCOc2cc(=O)n(C)c3ccccc23)c1 | -1.26 |
| CCOC(=O)N1CCN(S(=O)(=O)c2cc([N+](=O)[O-])c(C)cc2C)CC1 | -40.5 |
| O=C(Nc1nsc(-c2ccccc2)n1)c1ccc(F)cc1 | -24.6 |
| Cc1ccc(S(=O)(=O)N2CCN=C2SCc2ccccc2)cc1 | -5.52 |
| O=C(NC1CCCCC1)C1CCCN1C(=O)NCc1ccccc1 (stereo not drawn) | -2.71 |
| CC[n+]1c(/C=C2\C=C(C)CC(C)C2)sc2ccccc21.[I-] (stereo not drawn) | 6.92 |
| Cc1cc(C)cc(N2C(=O)c3nccnc3C2=O)c1 | 4.26 |
| CC(C)N(C(=O)CSc1nnnn1C1CCCC1)C(C)C | -12.9 |
| O=C(Nc1ccc(C(=O)N2CCN(c3ccccc3F)CC2)cc1)C1=CSCCO1 | -50.3 |
| O=C(c1ccccc1Cl)N(Cc1ccc(Br)cc1)N1C(=O)CCCC1=O | 9.41 |
| O=C(c1ccco1)N1CCN(CC(=O)N(C2CCCCC2)C2CCS(=O)(=O)C2)CC1 (stereo not drawn) | 16.2 |
| Cc1cc(C)nc(SCC(=O)OCC(=O)N(C)c2c(N)n(Cc3ccccc3)c(=O)[nH]c2=O)n1 | 12.4 |
| O=C(Cc1cccs1)N/N=C/c1ccco1 | 9.04 |
| Nc1cc(C(=O)N2CCN(c3ccc([N+](=O)[O-])cc3)CC2)ccc1N1CC2CC(C1)c1cccc(=O)n1C2 (stereo not drawn) | -35.3 |
| Cc1cc2c(cc1C)N(Cc1ccccc1)C1=NCCCN12.Cl | -72.3 |
| Cn1cnc(NCc2ccccc2)c1[N+](=O)[O-] | 10.1 |
| O=C(N/N=C\c1ccc(Sc2ccccn2)o1)c1cccc(Br)c1 | -4.65 |
| Cc1nn(C(C)C)c(C)c1CN1CCN(Cc2ccsc2)C(CCO)C1 (stereo not drawn) | 0.518 |
| O=C(/C=C/c1ccc([N+](=O)[O-])cc1)NC1CC2CCC1C2 (stereo not drawn) | -67.8 |
| CCC(=O)Nc1ccc(NC(=O)CSc2nc3c(c(=O)n(C)c(=O)n3C)n2CC)cc1 | -0.577 |
